# Measured values published in PubChem BioAssay AID1159614 (National Center for Advancing Translational Sciences (NCATS), 2016).
# The campaign covered roughly 45,000 compounds. About 65 (0.1%) were called active. Calls follow the shape of the dose curve; as a rule, active = well fitted activation curve with a large enough effect; inconclusive = small, poorly fitted or top-dose-only effect; inactive = no such curve, though single readings can be large or run the other way. This is one part of the list.
# Target: Galactocerebrosidase (Homo sapiens) (UniProt P54803)
# Assay: A Novel Cell-Based Assay to Identify Small Molecules for B -Galactocerebrosidase; also: nearly all actives have a fitted effect of over 65% in size; as to activation: 0% is about no effect
# Conditions: 145M-Twi-hGALC-G270D cells (Twitcher mouse brain line with human GALC G270D), HMU-beta-Gal fluorescence, 48 h; series mostly up to 57.5 µM; activation: at the top concentration
# Summary of the method: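 Live 145M-Twi cells (Twitcher mouse brain-derived, GALC-null) stably expressing human GALC-G270D, with a wild-type GALC line, were compound-treated. Residual GALC activity was then read as fluorescence from 0.1 mM final HMU-β-gal at pH 5.2; higher signal means activation.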
# Potency is read from the fitted curve at half-maximal effect.
# UniProt P54803, sequence (P54803 whole entry, looked up): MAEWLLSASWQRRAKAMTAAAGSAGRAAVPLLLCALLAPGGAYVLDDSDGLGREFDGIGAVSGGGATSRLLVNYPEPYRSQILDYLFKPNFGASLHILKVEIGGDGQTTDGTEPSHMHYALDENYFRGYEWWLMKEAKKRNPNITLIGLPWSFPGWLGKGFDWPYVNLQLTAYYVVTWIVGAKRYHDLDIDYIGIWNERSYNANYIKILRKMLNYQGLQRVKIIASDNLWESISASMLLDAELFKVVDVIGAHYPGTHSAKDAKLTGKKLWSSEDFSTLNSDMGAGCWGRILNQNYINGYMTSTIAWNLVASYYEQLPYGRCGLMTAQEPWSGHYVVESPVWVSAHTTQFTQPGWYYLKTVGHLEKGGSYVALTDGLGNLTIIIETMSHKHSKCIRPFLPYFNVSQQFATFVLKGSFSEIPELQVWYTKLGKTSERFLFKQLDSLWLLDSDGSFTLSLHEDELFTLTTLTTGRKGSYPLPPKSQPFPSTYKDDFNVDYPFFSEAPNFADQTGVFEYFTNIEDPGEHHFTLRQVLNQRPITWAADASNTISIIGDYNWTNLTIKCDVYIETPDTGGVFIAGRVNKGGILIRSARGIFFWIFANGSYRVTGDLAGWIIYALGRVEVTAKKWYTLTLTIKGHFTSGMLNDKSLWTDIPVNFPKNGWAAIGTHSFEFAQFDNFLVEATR
SMILES,activation,Potency
COc1ccc(C)cc1NC(=O)Cn1c(=O)n(Cc2nc(C)no2)c(=O)c2ccccc21,inactive: 10.1%,–
O=C(Nc1nnc2n1CCS2)c1ccc(F)cc1F,inactive: -26.7%,–
O=C(c1ccccc1Cl)N1CCCCC1CCN1CCCCC1 (stereo not drawn),inactive: -5.9%,–
CC(C)c1ccc(NS(=O)(=O)c2ccc3nc(-c4ccccc4)[nH]c3c2)cc1,inactive: -10.5%,–
COc1ccc(NCc2cc3cc4c(cc3n(CC(=O)Nc3cc(C)ccc3C)c2=O)OCCO4)cc1,inactive: -13.2%,–
CCOc1ccc(CN2CCc3nc(Nc4ccc5c(c4)OCCO5)ncc3C2)cc1,inactive: -12.5%,–
Cc1nn2c(=O)cc(COC(=O)c3ccccc3NC(=O)C(C)Oc3ccccc3)nc2s1 (stereo not drawn),inactive: -7.16%,–
CCOc1ccccc1NC(=O)C(CC)Sc1nc2ccncc2[nH]1 (stereo not drawn),inactive: -10%,–
COc1ccc(CCNC(=O)c2ccc(Cn3c(=O)c4ccccc4n(Cc4cccc(Cl)c4)c3=O)cc2)cc1OC,inactive: -12.1%,–
Cc1ccc(NC(=O)Cn2c(=O)n(Cc3ccco3)c(=O)c3ccccc32)c(C)c1,inactive: -0.513%,–
COc1ccc(NC(=O)c2ccc3c(c2)sc2nc(-c4ccc(OC)cc4)cn23)cc1,inactive: -4.63%,–
Cc1ccc(-n2nc3c(=O)n(CCCC(=O)NCCc4ccccc4Cl)nc(C)c3c2C)cc1,inactive: -14.3%,–
CCOc1ccc(C2CC(=O)N(c3cccc(F)c3)C3=C2C(=O)OC3)cc1 (stereo not drawn),inactive: -17.7%,–
Cc1ccc(-c2cn(-c3cccc(Cl)c3)c(S(=O)(=O)CC(=O)Nc3ccccc3F)n2)cc1,inactive: -12.6%,–
CCN(CC)c1cc2c(cc1F)c(=O)c(S(=O)(=O)c1cccc(C)c1)cn2C,inactive: -7.43%,–
Cc1ccc(-n2c(=O)c3ccc(C(=O)NCc4ccco4)cc3n(Cc3ccccc3C#N)c2=O)cc1,inactive: -12.2%,–
Cn1c(=O)c2cc(C(=O)NCCCN3CCN(c4ccccc4F)CC3)sc2c2ccccc21,inactive: -14%,–
COc1ccc(-n2cnc3cc(C(=O)NC4CCCC4)ccc32)cc1,inactive: -10.6%,–
O=C(CSc1c2c(nc3ccccc13)CCC2)Nc1ccc(F)cc1,inactive: -24.6%,–
COc1ccc(Cn2c(C(=O)O)c(CNCc3ccco3)c3ccc(OC)cc32)cc1,inactive: 1.32%,–
CCOC(=O)c1ccc(NC(=O)CSc2nnc3c4ccccc4n(CC)c3n2)cc1,inactive: 2.31%,–
CN(C)c1ccc(CNC(=O)c2ccc(Cn3c(=O)c4cccn4c4cccnc43)cc2)cc1,inactive: -6.21%,–
CC(C)(C)c1ccc(C(=O)NCC(c2ccco2)S(=O)(=O)c2ccc(F)cc2)cc1 (stereo not drawn),inactive: -34.3%,–
COc1ccc(CNC(=O)CSc2ncc3c(n2)-c2ccc(Cl)cc2N(Cc2ccc(F)cc2)S3(=O)=O)cc1OC,inactive: -3.3%,–

SMILES,activation,Potency
COCCCNC(=O)CCCn1c(SCC(=O)c2ccc(F)cc2)nc2c(sc3ccccc32)c1=O,inactive: -14.7%,–
C#C[C@]1(O)CC[C@H]2[C@@H]3CCc4cc(O)ccc4[C@H]3CC[C@@]21C,inactive: 4.89%,–
COC(=O)c1ccccc1NC(=O)c1cnc(Nc2ccc(OC)cc2)c2ccccc12,inactive: 3.08%,–
CCc1ccc2ncc(C(=O)c3ccc(C)c(C)c3)c(N3CCC(C(N)=O)CC3)c2c1,inactive: -14.4%,–
COc1ccc(C2=Nc3ccc(F)cc3NC(c3cccc(C(F)(F)F)c3)=N2)cc1,inactive: -12.8%,–
CCCOc1ccc(C(=O)N(Cc2ccccc2Cl)C2CCS(=O)(=O)C2)cc1 (stereo not drawn),inactive: -8.37%,–
Cc1cccc(N2CCN(Cc3nnc(-c4ccccc4C)o3)CC2C)c1 (stereo not drawn),inactive: -19.3%,–
Cc1ccc(Cn2c(CNC(=O)CCc3ccccc3)nc3cccnc32)cc1,inactive: 1.54%,–
O=C(Cn1cnc(S(=O)(=O)N2CCCC2)c1)Nc1cccc(Br)c1,inactive: -2.71%,–
Cc1cc(-c2nc3ncccc3o2)ccc1NC(=O)c1ccccc1Br,inactive: -11.7%,–
CCCCOc1cccc(C(=O)N(Cc2ccc(N(C)C)cc2)C2CCS(=O)(=O)C2)c1 (stereo not drawn),inactive: -14.2%,–
COc1ccc(CCNC(=O)Cn2c(=O)n(-c3ccccc3)c(=O)c3c(C)c(C)sc32)cc1OC,inactive: -4.98%,–
COc1cc(OC)c(-c2cc(C(=O)NCc3ccc(F)cc3)c3c(-c4ccccc4)[nH]nc3n2)cc1OC,inactive: -17%,–
CC(=O)N1c2ccc(S(=O)(=O)N3CCCCCC3)cc2CC1C(=O)NCc1ccccc1C (stereo not drawn),inactive: -7.68%,–
Cc1ccc(CCNC(=O)CCCn2c(=O)c3ccccc3n(Cc3ccccc3C)c2=O)cc1,inactive: -6.7%,–
O=C(COc1ccc(F)cc1)NCC(c1ccc(Cl)cc1)N1CCCCC1 (stereo not drawn),inactive: -9.54%,–
CC(=O)N1CCOc2cc(S(=O)(=O)NCc3ccc(F)cc3)c(C)cc21,inactive: -11.9%,–
COc1ccc(-n2nc(C(=O)N3CCN(c4ccccc4OC)CC3)c3c4ccccc4n(C)c3c2=O)cc1Cl,inactive: -14.9%,–
COc1ccccc1CNC(=O)CCCN1C(=O)CSc2c1c(C)nn2-c1ccccc1,inactive: -14.5%,–
CC(C)C1N=C2c3ccccc3N=C(SCC(=O)NCc3ccc(Cl)cc3)N2C1=O (stereo not drawn),inactive: -14.2%,–
O=C(NC1CCCc2ccccc21)c1ccc2c(c1)sc1nc(-c3ccccc3)cn12 (stereo not drawn),inactive: -18.8%,–
O=C(Nc1ccc2c(c1)CCCN2C(=O)c1cccs1)c1ccccc1,inactive: -29.1%,–
O=C(Cn1c(=O)n(Cc2ccccc2)c(=O)c2sc3ccccc3c21)Nc1ccccc1F,inactive: 1.77%,–
Cc1cc(C)cc(NC(=O)Nc2ccc3nc(N4CCN(C)CC4)cc(C)c3c2)c1,–,active: 17.8 µM

SMILES,activation,Potency
CCOc1ccc(NC(=O)Cn2ccn3nc(-c4ccc(OC)c(OC)c4)cc3c2=O)cc1,inactive: -5.8%,–
Cc1nc(N2CCCC2)c2c(C(=O)Nc3cccc(Cl)c3)c(C)oc2n1,inactive: -6.23%,–
CCCS(=O)(=O)c1nc(S(=O)(=O)c2ccc(C)cc2)c(NCc2ccccc2Cl)s1,inactive: 0.514%,–
Cc1c(C(=O)NCc2cccc(Cl)c2)sc2nc[nH]c(=O)c12,inactive: -15.1%,–
COc1cccc(Oc2nc(C)nc3c2oc2ccccc23)c1,inactive: -6.37%,–
CC(CNC(=O)CCc1cn(Cc2ccccc2Cl)c2ccccc12)c1ccccc1 (stereo not drawn),inactive: -6.65%,–
CCOc1ccccc1NC(=O)C1CCN(S(=O)(=O)c2cccs2)CC1,inactive: 0.231%,–
O=C(O)CCC(=O)Nc1sc2c(c1C(=O)Nc1ccccc1)CCCCC2,inactive: -11.5%,–
COc1ccc(NC(=O)Cn2cc(C(=O)c3ccccc3)c(=O)c3cc(OC)ccc32)c(OC)c1,inactive: -10.9%,–
Cc1ccsc1CN(C(=O)c1ccc(OCC(C)C)cc1)C1CCS(=O)(=O)C1 (stereo not drawn),inactive: -8.17%,–
CCc1ccc(NC(=O)c2ccc(F)c(S(=O)(=O)N3CCN(c4ccc(OC)cc4)CC3)c2)cc1,inactive: -6.68%,–
CC1(C)CC(=O)c2cc(C#N)c(=O)n(-c3ccc(Cl)cc3)c2C1,inactive: -14.3%,–
Cc1c(C(=O)OC(C)C)sc(NC(=O)C2c3ccccc3Oc3ccccc32)c1C(=O)OC(C)C,inactive: -3.95%,–
Cc1ccc(Sc2c(C)nn(C(=O)c3ccc(Cl)cc3)c2C)cc1,inactive: -8.36%,–
Cc1ccc(-n2c3nc(=O)[nH]c(=O)c-3cc3c(C)nn(-c4ccccc4)c32)cc1C,inactive: 1.52%,–
CCOC(=O)c1c(S(=O)(=O)N2CCCC(C(=O)Nc3ccc(C)cn3)C2)c(C)n(C)c1C (stereo not drawn),inactive: -13.3%,–
Cc1ccc2oc(-c3cccc(NC(=O)Cc4ccc(Cl)cc4)c3)nc2c1,inactive: -7.31%,–
CCOC(=O)c1cccc(NS(=O)(=O)c2cc(-c3cnc(C4CC4)o3)ccc2C)c1,inactive: -12.2%,–
Cc1cccc(N2CCN(C(=O)c3cc4c(=O)oc5ccccc5c4s3)CC2C)c1 (stereo not drawn),inactive: 21.3%,–
Cc1ccc(NC(=O)CSc2cc(=O)n(C)c3ccc(Cl)cc23)c(Br)c1,inactive: -7.33%,–
CCc1ccc(CNC(=O)c2ccc3nc(SCc4ccc(F)cc4)n(C)c3c2)cc1,inactive: -15.7%,–
Cc1ccc(NS(=O)(=O)c2ccc3c(c2)NC(=O)C(C)C(=O)N3)cc1F (stereo not drawn),inactive: 14.4%,–
Cc1cc(C)c2nc(N3CCCC(C(=O)NCc4cccc(Cl)c4)C3)sc2c1 (stereo not drawn),inactive: 29.1%,–
CC(C)CN(CC(C)C)C(=O)C1CCCN(S(=O)(=O)c2ccc3c(c2)oc(=O)n3C)C1 (stereo not drawn),inactive: -18.1%,–

SMILES,activation,Potency
COc1cccc(NC(=O)c2nn(-c3ccc(C)cc3)c(=O)n(C)c2=O)c1,inactive: -4.38%,–
COc1ccc(CNS(=O)(=O)c2cc3c(cc2C)n(C)c(=O)c(=O)n3C)cc1,inactive: -2.12%,–
CCCCN(C)CCNC(=O)c1c(C)oc2ncnc(N3CCOCC3)c12,inactive: -9.58%,–
Cc1ccc(NC(=O)c2cnn(-c3ccc(C)c(C)c3)c2C2CCN(C(=O)OC(C)(C)C)CC2)c(C)c1,inactive: -19.4%,–
Cc1cccc(NC(=O)Cn2c(=O)n(CCC(C)C)c(=O)c3cccnc32)c1,inactive: -14%,–
CC(NC(=O)c1ccc2c(c1)N(Cc1cccc(F)c1)C(=O)c1ccccc1S2)c1ccccc1 (stereo not drawn),inactive: -10.7%,–
Cc1ccc(-n2c(=O)c3c(c4cc(C)ccc4n3C)n(CC(=O)Nc3c(C)cccc3C)c2=O)cc1,inactive: 12.4%,–
O=C(CCSCCc1ccccn1)Nc1cc(F)ccc1F,inactive: -3.39%,–
Cc1ccc(-n2nc(C(=O)N3CCN(c4cccc(C(F)(F)F)c4)CC3)c(=O)n(C)c2=O)cc1,inactive: -18.6%,–
COc1cc(NC(=O)CN2C(=O)C(c3ccc(C)cc3)=NC23CCCCC3)cc(OC)c1,inactive: -9.19%,–
Cc1ccc(CNc2ccc(-c3nc(C(C)C)no3)cc2[N+](=O)[O-])cc1,inactive: -14.3%,–
Cc1ccc(Cn2c(=O)n(Cc3ccco3)c(=O)c3sc4ccccc4c32)cc1,inactive: -5.57%,–
O=c1c2cnn(-c3ccc(Cl)cc3)c2ncn1Cc1ccc(Cl)cc1Cl,inactive: -18%,–
CC1=C(C(=O)Nc2ccccc2)C(c2cccnc2)n2nc(SCc3ccccc3F)nc2N1 (stereo not drawn),inactive: -9.74%,–
COc1cccc(CNC(=O)C2CCN(C(=O)N3CCOc4ccc(Cl)cc43)CC2)c1OC,inactive: -6.51%,–
COc1ccc(Cl)cc1NC(=O)c1cc(C)nc2c1c(C)nn2-c1ccccc1,inactive: -11.3%,–
CCC(CC)C(=O)Nc1cc(-c2cccc(C)c2)nn1-c1ccccc1,inactive: -0.17%,–
O=c1c2sc3ccccc3c2n(Cc2ccccc2F)c(=O)n1Cc1ccccc1,inactive: -0.0209%,–
O=C(CC1N=C2c3ccccc3N=C(SCc3ccccc3F)N2C1=O)NCCc1ccccc1 (stereo not drawn),inactive: -30.8%,–
CC(=O)N1CCC2(CC1)OC(=O)C(C)=C2C(=O)Nc1cccc(Cl)c1C,inactive: -0.977%,–
Cc1cccc(C(=O)Nc2cc3c(cc2N2CCCCC2)n(C)c(=O)c(=O)n3C)c1,inactive: -15.6%,–
